# Assay results: the supplement of paper PMC11125491
# ± gives the standard deviation of the averaged measurements. Growth of baker's yeast expressing single-residue variants of Pneumocystis jirovecii dihydrofolate reductase in 8.8 or 44 µM methotrexate (about 75% and 90% inhibition of the wild type). Selection coefficient per generation; 0 = like wild type, above 0 = less sensitive, below 0 = more sensitive or loss of function. No active / inactive call per row; the paper calls resistant above 0.220 (8.8 µM) or 0.243 (44 µM) together with a significance test. At 44 µM about 15% of codons end with one read or none, so the lowest values are floors (replicate rank correlation 0.74; 0.94 at 8.8 µM).
# B1: UniProt A0EPZ9; numbered along this chain (parent)
# chain: MDWQKSLTLIVALTLSRGIGLKNDLPWKLKSDMMFFSRVTSGLLVTRSTGQMNVVLMGRKTWESLPAHSRPLKNRINVVISRQEVLDLGGGAYHARSLDDALALLSQIYDSTSKIQLNRVFVIGGGELCKAAMEHSRLNRIIATVIHNEVDCDVFFPIDFRSSQSCLPWRKQDHSVLEAWVGSKVPQGKINENGFIYEFEMWIRDI
# Variants of: B1
# Test: selection coefficient against synonymous wild-type codons (log2 per generation); higher = faster growth than wild type
# Conditions: with Saccharomyces cerevisiae carrying the variant on a plasmid
# Procedure: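 Pooled growth of yeast carrying single-residue variants of P. jirovecii dihydrofolate reductase (own DFR1 gene intact), two passages at 30 °C, three cultures, sequenced before and after. Codons with under 15 starting reads are left out; codons of one change are averaged.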
Variant,selection coefficient against synonymous wild-type codons (log2) (methotrexate 8.8 µM),selection coefficient against synonymous wild-type codons (log2) (methotrexate 44 µM)
H94I,-0.63 ± 0.19,-0.257 ± 0.033
I203T,0.0935 ± 0.057,0.0789 ± 0.18
G90N,-0.0583 ± 0.02,-0.0575 ± 0.077
G90T,-0.139 ± 0.066,-0.138 ± 0.042
R70D,-0.00152 ± 0.07,-0.00243 ± 0.1
L177S,-0.0186 ± 0.042,-0.0168 ± 0.061
V176E,0.144 ± 0.039,0.106 ± 0.033
V176L,-0.0614 ± 0.051,-0.109 ± 0.16
V176A,0.0852 ± 0.022,-0.0327 ± 0.14
Y93P,-0.55 ± 0.056,-0.0484 ± 0.057
C166A,0.0101 ± 0.028,0.0148 ± 0.073
I76V,-0.0765 ± 0.037,-0.17 ± 0.16
M34L,0.00647 ± 0.057,0.000714 ± 0.1
L7N,-0.252 ± 0.032,-0.18 ± 0.068
L7A,0.0434 ± 0.057,0.0277 ± 0.084
L7V,-0.0576 ± 0.044,-0.0215 ± 0.096
R119A,-0.0226 ± 0.029,0.0439 ± 0.11
R119Y,-0.0121 ± 0.0059,0.12 ± 0.14
K73D,-0.0142 ± 0.022,-0.062 ± 0.15
G20H,-0.297 ± 0.024,-0.0491 ± 0.05
R38K,0.256 ± 0.018,0.284 ± 0.074
V55L,-0.286 ± 0.11,-0.223 ± 0.12
V55D,-0.48 ± 0.031,-0.274 ± 0.13
S183C,-0.0479 ± 0.037,-0.14 ± 0.044

Variant,selection coefficient against synonymous wild-type codons (log2) (methotrexate 8.8 µM),selection coefficient against synonymous wild-type codons (log2) (methotrexate 44 µM)
S183N,-0.0558 ± 0.077,-0.07 ± 0.015
S183K,0.102 ± 0.02,-0.0281 ± 0.16
S162I,-0.0536 ± 0.038,0.00895 ± 0.12
S162G,0.000451 ± 0.055,-0.0162 ± 0.085
A95N,-0.707 ± 0.11,-0.341 ± 0.038
A95Y,-0.748 ± 0.12,-0.332 ± 0.039
P26L,-0.327 ± 0.12,-0.232 ± 0.15
E192P,-0.0269 ± 0.1,-0.191 ± 0.093
L105R,-0.667 ± 0.18,-0.213 ± 0.17
L56G,-0.548 ± 0.066,-0.292 ± 0.07
L56R,-0.532 ± 0.053,-0.27 ± 0.089
L56Y,-0.591 ± 0.032,-0.343 ± 0.043
L56T,-0.583 ± 0.045,-0.314 ± 0.051
F35I,0.246 ± 0.063,0.247 ± 0.03
F35Q,0.7204 ± 0.0041,0.894 ± 0.013
Q164C,-0.18 ± 0.046,-0.257 ± 0.25
Q164V,-0.0558 ± 0.033,-0.0748 ± 0.074
H174W,-0.147 ± 0.037,-0.348 ± 0.054
A92N,-0.419 ± 0.03,-0.0746 ± 0.065
A92G,-0.4 ± 0.1,-0.237 ± 0.11
S37Q,0.0185 ± 0.033,0.00642 ± 0.092
S136G,-0.0383 ± 0.043,-0.0841 ± 0.12
K114M,-0.188 ± 0.024,-0.095 ± 0.034
K114V,-0.198 ± 0.075,-0.213 ± 0.072

Variant,selection coefficient against synonymous wild-type codons (log2) (methotrexate 8.8 µM),selection coefficient against synonymous wild-type codons (log2) (methotrexate 44 µM)
K114T,-0.106 ± 0.12,0.0321 ± 0.17
K30D,-0.0494 ± 0.029,-0.0163 ± 0.03
K30C,-0.0143 ± 0.0076,0.0134 ± 0.18
I115V,0.0236 ± 0.047,0.145 ± 0.1
D205N,-0.118 ± 0.062,-0.23 ± 0.14
I80H,-0.508 ± 0.058,-0.00728 ± 0.022
M57H,-0.396 ± 0.19,-0.191 ± 0.17
Q4N,-0.0768 ± 0.067,-0.0696 ± 0.088
Q4V,-0.389 ± 0.17,-0.25 ± 0.096
Q4R,-0.297 ± 0.11,-0.254 ± 0.15
A131H,-0.168 ± 0.008,-0.12 ± 0.19
T61Y,-0.516 ± 0.071,-0.311 ± 0.0074
D100A,-0.227 ± 0.083,-0.263 ± 0.081
V120C,-0.262 ± 0.053,-0.218 ± 0.14
V120I,0.0319 ± 0.041,0.13 ± 0.026
L98H,-0.579 ± 0.078,-0.0772 ± 0.064
L98G,-0.696 ± 0.082,-0.193 ± 0.13
I123W,-0.603 ± 0.029,-0.323 ± 0.032
S163D,0.00417 ± 0.017,-0.0659 ± 0.018
M52S,-0.216 ± 0.071,-0.159 ± 0.11
M52I,-0.0381 ± 0.018,0.00581 ± 0.049
M52C,-0.088 ± 0.011,-0.0761 ± 0.11
M52R,-0.191 ± 0.15,-0.156 ± 0.086
M52Q,-0.113 ± 0.059,-0.119 ± 0.1

Variant,selection coefficient against synonymous wild-type codons (log2) (methotrexate 8.8 µM),selection coefficient against synonymous wild-type codons (log2) (methotrexate 44 µM)
N23S,-0.0377 ± 0.038,-0.0181 ± 0.065
N23Q,-0.0221 ± 0.089,-0.0394 ± 0.062
P157A,-0.377 ± 0.08,-0.27 ± 0.099
P157S,-0.309 ± 0.11,-0.216 ± 0.13
A132G,-0.599 ± 0.14,-0.359 ± 0.084
A132W,-0.342 ± 0.047,-0.422 ± 0.056
S111V,-0.166 ± 0.034,-0.0963 ± 0.19
F36Q,0.587 ± 0.0065,0.972 ± 0.02
F36H,0.895 ± 0.044,1.19 ± 0.025
F36K,-0.481 ± 0.12,-0.118 ± 0.059
H147A,-0.183 ± 0.064,-0.156 ± 0.18
W202R,-0.26 ± 0.094,-0.142 ± 0.062
G91A,0.0344 ± 0.057,0.0408 ± 0.13
V154N,0.363 ± 0.074,0.384 ± 0.021
V54G,-0.402 ± 0.13,-0.279 ± 0.12
V54F,-0.449 ± 0.12,-0.318 ± 0.15
A179I,-0.451 ± 0.04,-0.38 ± 0.14
A179E,0.121 ± 0.036,0.12 ± 0.041
E127P,0.603 ± 0.037,1.12 ± 0.07
E127A,-0.0556 ± 0.035,0.207 ± 0.074
E127L,-0.325 ± 0.12,-0.096 ± 0.24
E178F,-0.637 ± 0.15,-0.375 ± 0.066
D24E,-0.0236 ± 0.024,0.00268 ± 0.071
D24M,-0.289 ± 0.17,-0.186 ± 0.029

Variant,selection coefficient against synonymous wild-type codons (log2) (methotrexate 8.8 µM),selection coefficient against synonymous wild-type codons (log2) (methotrexate 44 µM)
V122Y,-0.627 ± 0.065,-0.329 ± 0.14
N74W,-0.666 ± 0.12,-0.206 ± 0.078
N74V,-0.706 ± 0.11,-0.0554 ± 0.44
T49R,-0.167 ± 0.11,-0.132 ± 0.12
T49V,-0.0294 ± 0.07,-0.0725 ± 0.09
M133A,0.0446 ± 0.044,0.0446 ± 0.15
M133I,-0.0738 ± 0.028,-0.0778 ± 0.16
M133P,-0.678 ± 0.12,-0.209 ± 0.097
M133Q,-0.348 ± 0.083,-0.11 ± 0.078
V79G,-0.784 ± 0.095,-0.336 ± 0.044
V79Q,-0.593 ± 0.071,-0.0914 ± 0.011
S69H,0.0718 ± 0.026,-0.11 ± 0.12
F121E,-0.719 ± 0.18,-0.369 ± 0.06
F121A,-0.177 ± 0.028,-0.13 ± 0.086
F121T,-0.28 ± 0.046,-0.201 ± 0.066
F121Q,-0.49 ± 0.068,-0.289 ± 0.056
Q107D,-0.0451 ± 0.035,0.0265 ± 0.08
Q172Y,-0.171 ± 0.087,-0.183 ± 0.14
Q172T,-0.0603 ± 0.07,-0.0738 ± 0.15
Q172H,-0.0624 ± 0.077,-0.167 ± 0.14
